Source: PubChem BioAssay AID463173 (ICCB-Longwood Screening Facility, Harvard Medical School, 2010)
The campaign covered roughly 52,000 compounds. About 4,300 (8.3%) were called active. Rule as the data show it: active = survival mostly below about 52% (no sharp cut-off); inactive = mostly above about 56%. The list shows a part of the results.

Test system: DeltatarO mutant
Assay: S. aureus survival, RN4220 and DeltatarO strains – OD600, teichoic acid synthesis inhibitors, primary screen (AID 463173)
Settings: S. aureus RN4220 wild type/DeltatarO growth, OD600, 18 h, active compounds read low, screened at 18.75 µg/mL (by protocol)

Compound	survival
CCCCC(=O)OC1=C(C(=O)c2ccccc2)N(CCC)S(=O)(=O)c2ccccc21	active: 18%
COc1ccc(C(=O)CN2CCC(N3CCCCC3)CC2)cc1	inactive: 92%
Cc1ccsc1CN1CCc2nc(Nc3ccccc3)ncc2C1	inactive: 61%
CC(SC12CC3CC(CC(C3)C1)C2)C(=O)O (stereo unspecified)	inactive: 86%
CC(NC(=O)CSc1n[nH]c(-c2ccccc2Cl)n1)c1nc2ccccc2[nH]1 (stereo unspecified)	inactive: 72%
CNC(=O)CCCN1C(=O)c2cccnc2Sc2ccccc21	inactive: 86%
CCOc1cc(C(=O)NCCc2sc(-c3ccc(F)cc3)nc2C)cc(OCC)c1OCC	inactive: 125%
Cc1nc2ccc(S(=O)(=O)N(CC(=O)Nc3ccc(F)cc3F)Cc3ccccc3)cc2s1	inactive: 81%
CCOc1ccc(NC(=O)c2ccc3[nH]c(C)c(C)c3c2)cc1	inactive: 97%
Cc1ccc(S(=O)(=O)Nc2cccc(-c3cn4cccc(C)c4n3)c2)c(C)c1	inactive: 75%
O=C(Cn1c(=O)c2cccn2c2cccnc21)NCc1cccc(F)c1	inactive: 77%
O=C(Cn1c(SCc2ccccc2F)nc2ccncc21)Nc1ccccc1C(F)(F)F	inactive: 66%
CCc1ccc(S(=O)(=O)c2nnn3c2nc(Nc2cc(OC)ccc2OC)c2sccc23)cc1	inactive: 88%
COc1ccccc1Nc1sc(C(=O)c2ccc(C)cc2C)c(N)c1S(=O)(=O)c1ccccc1	inactive: 67%
O=C(NCC1CCCO1)C1CCCN1C(=O)Nc1ccc(Cl)cc1 (stereo unspecified)	inactive: 84%
COc1ccc(CC(=O)Nc2sc3c(c2C(=O)Nc2ccccc2)CCCCC3)cc1	inactive: 68%
O=C(c1cnn(-c2ccc(F)cc2)c1-n1cccc1)N1CCN(c2ccc(F)cc2)CC1	inactive: 87%
CCNc1nc(NCc2ccc(F)cc2)c2cnn(C)c2n1	inactive: 85%
CC1=C(C(=O)Nc2cccc(Cl)c2C)C2(CCCCCC2)OC1=O	active: 0%
O=C(Nc1ccc(F)cc1)c1csc2c1CCCCC2	inactive: 63%
COc1cccc(N2CC(NC(=O)c3ccc(S(=O)(=O)N4CCOCC4)cc3)CC2=O)c1 (stereo unspecified)	inactive: 117%
CC1CCCCN1C(=O)c1cc(-c2ccccc2)on1 (stereo unspecified)	inactive: 88%
O=C(NCCc1ccccc1)c1nc(-c2ccc(Cl)cc2)n2c1CCCCC2	inactive: 90%
COc1ccc(CNc2nc3c(-c4ccccc4)nnn3c3ccccc23)cc1	inactive: 69%
Cc1c(C(=O)Nc2nc(-c3ccc(F)cc3)ns2)oc2ccc(Cl)cc12	inactive: 72%
Cc1ccc(CCNC(=O)CS(=O)Cc2nc(-c3ccccc3Cl)oc2C)cc1 (stereo unspecified)	inactive: 64%
